Experimental data taken from PubChem BioAssay AID504832 (National Center for Advancing Translational Sciences (NCATS), 2011).
Where “and” joins values, the source holds several entries; their conditions need not be identical. Identical values can stand only once. The campaign covered roughly 310,000 compounds. About 18,000 (5.8%) were called active. Inconclusive results, whose numbers are uncertain, are shown with a selection of clear calls. Calls follow the shape of the dose curve; as a rule, active = well fitted inhibition curve with a large enough effect; inconclusive = small, poorly fitted or top-dose-only effect, or another doubt; inactive = no such curve, though single readings can be large or run the other way. Where the call is inconclusive, the potency comes from a doubtful curve fit.

Assay: Primary qHTS for delayed death inhibitors of the malarial parasite plastid, 48 hour incubation
Details: P. falciparum luciferase growth in erythrocytes; series mostly up to 28.7 µM
In short: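 First compound was added to culture medium, then infected red cells at 0.1% parasitemia and 2% hematocrit (final). After incubation at 37 C under 5% CO2, luciferase detection reagent was dispensed and light output recorded.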
Potency is read from the fitted curve at half-maximal effect; tags tell the direction and shape of the fitted curve.

SMILES	Potency
O=C(Nc1ccccc1Oc1ccccc1)c1cnccn1	inconclusive: 18.5 µM [inhibitor, single point]
CSc1cccc(CN2CCC(Oc3ccc(C(=O)N4CCCCC4)cc3)CC2)c1	inconclusive: 14.7 µM [inhibitor, single point]
O=C(Nc1ccc(F)cc1)c1sc(Cl)nc1-c1ccccc1	inactive
Cc1ccc2nc(C)cc(Nc3ccc([N+](=O)[O-])cc3)c2c1	active: 0.738 µM
COc1cc(Nc2nnc(C)s2)c(Cl)cc1Cl	inconclusive: 18.5 µM [inhibitor, single point]
S=C1CCC(c2ccc(Cl)cc2)=NN1c1ccccc1	inconclusive: 11.7 µM [inhibitor, single point]
CCCC(=O)N1CCN(c2nc3ccc(Cl)cc3s2)CC1	inactive
COc1ccc(C(=O)C2CCCN(C(=O)c3cccnc3SC)C2)c(C)c1 (stereo not given)	inconclusive: 14.7 µM [inhibitor, partial curve]
CCN(CC)S(=O)(=O)c1ccc(N2CCCC2)c(C(=O)OCC(=O)N2CCCC2)c1	inconclusive: 0.0329 µM [inhibitor, full curve, poor fit]
COc1cc([N+](=O)[O-])ccc1NC(=O)CN1CCOCC1	inconclusive: 13.1 µM [inhibitor, single point]
O=C(c1ccc(Cl)cc1)C1CCCN(Cc2cccn2-c2ccccn2)C1 (stereo not given)	inconclusive: 9.28 µM [inhibitor, partial curve]
Cc1cc(N/N=C/c2ccc3c(c2)OCO3)nc2ccccc12	inconclusive: 10.4 µM [inhibitor, partial curve, poor fit]
CC(C)c1ccc(Nc2c([N+](=O)[O-])c(=O)n(C)c3ccccc23)cc1	inconclusive: 10.4 µM [inhibitor, single point]
NC(=S)C(c1ccccc1)c1ncc(C(F)(F)F)cc1Cl (stereo not given)	inconclusive: 18.5 µM [inhibitor, single point]
Cc1[nH]c2ccccc2c1C(c1ccccn1)c1c(C)[nH]c2ccccc12	active: 9.28 µM
Cc1ccc(Cl)cc1N1CCN(C(CC(C)C)c2nnnn2CC2CCCO2)CC1 (stereo not given)	inconclusive: 18.5 µM [inhibitor, single point]
CCc1ccc(/C=C2/Sc3ccccc3N(CC(=O)NCC3CCCO3)C2=O)cc1 (stereo not given)	inactive
Cc1ccc(C)c(SCC(=O)NCC(c2ccco2)N2CCCCC2)c1 (stereo not given)	inconclusive: 9.28 µM [inhibitor, single point]
CC(C)(C)C1CCC(C(=O)Nc2ccc(N3CCOCC3)cc2N2CCOCC2)CC1 (stereo not given)	active: 10.4 µM
COc1ccc(N(C(=O)c2ccco2)C(C(=O)NC2CCCC2)c2ccc(N3CCOCC3)cc2)c(OC)c1 (stereo not given)	inconclusive: 8.28 µM [inhibitor, partial curve]
CCCCOC(=O)c1ccc(NC(=O)c2nn(C)cc2Br)cc1	inconclusive: 14.7 µM [inhibitor, single point]
CNc1cnn(-c2ccc(C)cc2)c(=O)c1Sc1ccc(C)cc1	inactive

SMILES	Potency
Cc1cccc2c1N(CCOc1ccc(C(C)(C)C)cc1)C(=O)C2=O	active: 10.4 µM
CCOC(=O)c1cc(NC(=O)COC)ccc1O	inactive
CCC(=O)N1CCc2cc(S(=O)(=O)NCCCN3CCN(Cc4ccccc4)CC3)ccc21	inconclusive: 18.5 µM [inhibitor, single point]
O=C(Nc1ccc2nc3n(c(=O)c2c1)CCCCC3)C(=O)N1CCN(c2ccccc2F)CC1	inconclusive: 2.08 µM [inhibitor, full curve, poor fit]
CCCn1c(SCC(=O)N2N=C3/C(=C/c4ccc(OC)cc4)CCCC3C2c2ccc(OC)cc2)n[nH]c1=O (stereo not given)	inconclusive: 11.7 µM [inhibitor, single point]
COc1ccccc1NC(=O)c1c(NC(=O)CCC(=O)O)sc2c1CCCCC2	inconclusive: 2.08 µM [inhibitor, full curve]
Cc1ccc(/C=C2/SC(=S)N(CCC(=O)NCCCN3CCOCC3)C2=O)cc1	inconclusive: 13.1 µM [inhibitor, single point]
Cc1cccc(N(CC(=O)NC2CCCCC2)C(=O)Cn2nnc(-c3ccc(C)o3)n2)c1	inconclusive: 10.4 µM [inhibitor, partial curve, poor fit]
Cc1cc(C)cc(NC(=S)N(CCCN2CCN(C)CC2)Cc2cccs2)c1	inconclusive: 1.65 µM [inhibitor, partial curve, poor fit]
CCO[C@@H]1OC(C(=O)NCc2nc3ccccc3[nH]2)=C[C@H](c2cn(C(C)=O)c3ccccc23)[C@H]1CCCO	inconclusive: 0.185 µM [inhibitor, full curve, poor fit]
COc1cc(OC)c(S(=O)(=O)Nc2ccccc2N2CCOCC2)cc1NC(C)=O	inconclusive: 13.1 µM [inhibitor, partial curve, poor fit]
CCN(CC)S(=O)(=O)c1ccc(C(=O)N2CCN(CCN3C(=O)c4cccc5cccc(c45)C3=O)CC2)cc1	inconclusive: 3.29 µM [inhibitor, single point]
CC(=O)[C@H]1CC[C@H]2[C@@H]3C=CC4=CC(=O)CC[C@@]4(C)[C@@H]3CC[C@]12C	inconclusive: 6.57 µM [inhibitor, partial curve]
CC(C)Cn1c(N)c(C(=O)COC(=O)CCc2nc3ccccc3s2)c(=O)n(C)c1=O	inactive
N#CCOC(=O)C1CSC2(c3ccc(Br)cc3)CCC(=O)N12 (stereo not given)	inactive
O=C(CCC(=O)N1CCOc2ccccc21)NCc1cccnc1	inactive
O=C(NC1CCCC1)C(c1ccncc1)N(C(=O)c1csnn1)c1ccc(Cl)cc1 (stereo not given)	inconclusive: 2.08 µM [inhibitor, partial curve, poor fit]
CCCn1c2ccccc2c2cnn(CC(=O)NCCCN3C(C)CCCC3C)c(=O)c21 (stereo not given)	inconclusive: 11.7 µM [inhibitor, partial curve, poor fit]
COc1cc(NC(=O)c2cc(S(=O)(=O)N3CCc4ccccc43)cn2C)cc(OC)c1OC	active: 11.7 µM
O=C(Nc1ccccn1)c1ccc(Br)c(S(=O)(=O)N2CCCC2)c1	inactive
Nc1ccc2c(c1)C(=O)N(CC1CCCO1)C2=O (stereo not given)	inactive
COc1ccc(-n2c(SCC(=O)Nc3ccc(C(N)=O)cc3)nc3c([nH]c4ccccc43)c2=O)cc1OC	inconclusive: 9.28 µM [inhibitor, partial curve, poor fit]

SMILES	Potency
COc1cc2c(cc1NC(=O)COC(=O)/C=C/c1ccccc1)oc1ccccc12	inactive
O=C(NC1CCCc2ccccc21)C12CC3CC(CC(O)(C3)C1)C2 (stereo not given)	inactive
COc1cc(OC)c(/C=C2\C(=O)Nc3ccccc32)c(OC)c1	inconclusive: 18.5 µM [inhibitor, single point]
Cc1ccccc1N(C(=O)Cc1c[nH]c2ccccc12)C(C(=O)NC1CCCCC1)c1ccco1 (stereo not given)	inconclusive: 11.7 µM [inhibitor, single point]
COc1ccc(-c2cnnn2-c2ccc(NC(=O)c3ccc(S(=O)(=O)N4CCCCC4)cc3)cc2)cc1	inconclusive: 10.4 µM [inhibitor, partial curve, poor fit]
OC(CC#CCN1CCCCC1)(c1ccccc1)c1ccccc1	inconclusive: 0.131 µM [inhibitor, full curve, poor fit]
Cc1ccc(-n2nnnc2SC(C)C(=O)Nc2ccc(Cl)cn2)cc1 (stereo not given)	inconclusive: 18.5 µM [inhibitor, single point]
Cc1nc(NC(=O)CSc2nnc(N)s2)c(Cl)cc1Cl	inactive
CCOC(=O)C1=C(CSc2nncn2C)NC(=O)NC1c1cc(OCC)ccc1OCC (stereo not given)	inconclusive: 18.5 µM [inhibitor, single point]
c1ccc(-c2csc3ncnc(N4CCN(Cc5ccc6c(c5)OCO6)CC4)c23)cc1	active: 13.1 µM
CCOc1ccccc1CNc1ncnc2ccc(-c3c(C)noc3C)cc12	inconclusive: 13.1 µM [inhibitor, single point] and inconclusive: 13.1 µM [inhibitor, partial curve]
CCOCCCNC(=S)N(CCN(C)C)Cc1cc2cc3c(cc2[nH]c1=O)OCCO3	inconclusive: 18.5 µM [inhibitor, single point]
COc1ccc(Cl)cc1NC(=O)CCc1nnc2ccc(N3CCN(C)CC3)nn12	inactive
Clc1ccc(-c2nc(N3CCCCC3)nc3ccccc23)cc1	inconclusive: 13.1 µM [inhibitor, single point]
COc1ccc(CNC(=O)COC(=O)c2[nH]c(C)c(C(C)=O)c2C)cc1OC	inactive
COc1ccc(NC(=O)CN(C)C(=O)CSC(c2ccccc2)c2ccccc2)cc1	inconclusive: 18.5 µM [inhibitor, single point]
CCOC(=O)[C@H]1[C@H]2COc3ccccc3[C@@H]2N2C(=O)c3cc(C)ccc3NC(=O)[C@@]12C	inconclusive: 13.1 µM [inhibitor, single point]
COc1cc([C@@H]2CC=C(C(=O)O)[C@H](c3ccccc3F)N2S(=O)(=O)c2ccc(C)cc2)cc(OC)c1OC	active: 10.4 µM
COc1cc(CNC2CCCCCC2)cc(OC)c1OC	inconclusive: 8.28 µM [inhibitor, partial curve, poor fit]
CCOc1cccc(=O)c2c(C)n(CC3CCCO3)c(C)c12 (stereo not given)	active: 14.7 µM
COC(=O)c1[nH]c2ccccc2c1NC(=O)CN1CCN(C(=O)c2ccco2)CC1	inconclusive: 7.38 µM [inhibitor, partial curve]
